# Data reported in the supplement of paper PMC10338343.
# ± gives the standard deviation. In all, about 6,600 sequences were measured (“pre-steady-state target cleavage rate”: median about 0.07, highest 2% from about 0.72 on). Only a part is listed here, and it is no random draw.
# Tested on: MIWI (PIWIL1) piRISC loaded with Kctd7 piRNA (30 nt)
# Assay: pre-steady-state target cleavage rate (min^-1); MIWI and MILI are mouse PIWI proteins and EfPiwi is from a freshwater sponge; tags in brackets are library labels; higher = faster piRNA-guided slicing of the target
# Conditions: guide: Kctd7 piRNA 5'p-UGUUAAUCUCUCAGAGAAGGUGACAGUGAU; auxiliary factor: 500 nM mouse GTSF1
# Method: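 Cleave-'n-Seq: a library of target RNAs (target site embedded in constant flanks, ACAGCATTCCGCGTTAGTGATATCCG... 5' flank; DNA-blocked outside the site) at 0.1 nM was incubated with 1 nM active mouse MILI or MIWI piRISC (synthetic 5'-monophosphorylated piRNA guide) with or without 500 nM mouse GTSF1 at 33 °C for 1 min to 16 h. Uncleaved targets were sequenced and normalised to non-target controls, and the pooled three trials were fitted to a burst-and-steady-state model to give the pre-steady-state cleavage rate (min^-1; k3 is constrained to at most 1e-4). Sequence is the target site only; target names encode pairing extent (gX:gY) and contiguous / 1-mismatch / 2-mismatch / bulge geometry. Fits with R² ≤ 0 are excluded.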
row,Sequence,pre-steady-state target cleavage rate
1,UAGUGAGUCACCUUCUCUGAGAGAUAUUGA,0.0893 ± 0.029
2,AUCACUGUCACCUUCACUGAGAGAUUAAGA,0.211 ± 0.039
3,UAGUCUGUCACCUUCUGUGAGAGUUUAACA,0.143 ± 0.019
4,UAGUGACAGACCUUCUCUGAGUGAUAAACA,0.0116 ± 0.0035
5,UUCACUGUCACCAUGUCUGAGAGAUUAACA,0.23 ± 0.015
6,UAGUCUGUCACCUUCUCUGAGAGUUUUACA,0.21 ± 0.042
7,UAGACUGUCACCUUCUCUGAGAUAUUAACA,0.116 ± 0.012
8,UAGUGAGUCACCUUCUCUGACAGUUUAACA,0.0866 ± 0.016
9,UUGACUGUCACCUUCUCUGAGAGAUUAUCA,0.28 ± 0.031
10,UAGACUGUCACCAUCUCUGUGAGAUUAACA,0.155 ± 0.013
11,UAGUGUGUCACCUUCAGUGAGAGAUUAAGA,0.0142 ± 0.0059
12,UAGACUGUGACCUUCUCUGAGAGAUUAACA,0.696 ± 0.051
13,UUCACUGUCACCUUCUCUGAGUCAUUAACA,0.0116 ± 0.0029
14,UACACUGUCACCUUGUGUGAGAGAUUAACA,0.129 ± 0.017
15,UAGUGUGUCACCUUCUCUGAGAGAUUACACA,0.0925 ± 0.024
16,AUCAGUGUCACCUUCUGUGAGAGAUUAACA,0.601 ± 0.026
17,UAGUGUGUCACCUUCUCUGAAGAUUAACA,0.00856 ± 0.0039
18,AUCACUGUCACCUUCUCUCAGAGUUUAACA,0.0766 ± 0.0086
19,UAGACUGUCACCUUCUCUGUGAGAUUUACA,0.211 ± 0.026
20,UAGUGACUCACCUUCACUGAGAGAUUAUCA,0.298 ± 0.059
21,AUCACUGUCACCUUCUCUGAGAGAAUAAGA,0.152 ± 0.037
22,UAGUGACACACCUUCUCUGAGACAUUAACA,0.0884 ± 0.013
23,UACACUGUCUCCUUGUCUGAGAGAUUAACA,0.193 ± 0.032
24,UAGUGACUCACCAUCUCUGUGAGAUUAACA,0.0556 ± 0.0073

row,Sequence,pre-steady-state target cleavage rate
1,UAGUGAGUUCACCUUCUCUGAGAGAUUAACA,0.585 ± 0.027
2,UAGUGACUCACCUUCUCAGAGUGAUUAACA,0.00965 ± 0.0024
3,UAGUGACUCACCUUGUCUGAGAGAUUAUCA,0.0668 ± 0.024
4,AUUACUGUCACCUUCUCUGAGAGAUUAACA,0.713 ± 0.032
5,UACACUGUGACCUUCUCUGUGAGAUUAACA,0.208 ± 0.024
6,AUCACACUCACCUUCUCUGAGAGAUUUUGA,0.0908 ± 0.028
7,UAGACUGUCUCGUUCUCUGAGAGAUUAACA,0.626 ± 0.043
8,UUCACUGUCACCUUCUCUGUAGAGAUUAACA,0.114 ± 0.037
9,UAGUGACUCACCUUCACUGAGAGUUUAACA,0.145 ± 0.028
10,UAGACUCUCACCUUCUCUGACAGAUUAACA,0.566 ± 0.036
11,UUCACUGAGUCCUUCUCUGAGAGAUUAAGA,0.0856 ± 0.019
12,UAGUGACUCACCUUCUCUGAGAGUAUAACA,0.077 ± 0.012
13,UAGUGAGUCACCUUCUGUGAGAGAUUAACA,0.609 ± 0.036
14,UAGACUGUCACCAUGUCUGAGAGAUUAACA,0.252 ± 0.025
15,UUCACUGUCCCCUUCUCUGAGAGAUUAACA,0.685 ± 0.048
16,UAGUCUGUCACCUUCUCUGAGAGUAAAACA,0.0972 ± 0.016
17,UUCACUGUCACCUUCUCUGACAGAUAUUGA,0.00372 ± 0.0035
18,UUCACUGUCUGCUUCUCUGAGAGAUUUUGA,0.0101 ± 0.0031
19,UAGACUGACACCUUCUCUGAGAGUUUAACA,0.324 ± 0.061
20,UAGACAGUCACCUUCUCUGAGAGUUUAACA,0.484 ± 0.087
21,UAGUGAGUCACCUUCUCUAAGAGAUUAACA,0.483 ± 0.02
22,UAGUGACUCACCUUGUCUGAGAGAUUAACA,0.135 ± 0.029
23,UUCACUGUCAGCUUCUCUGACAGAUUAACA,0.0541 ± 0.013
24,UAGACUGUCACCUUCUGUGUGAGAUUAACA,0.0954 ± 0.0065

row,Sequence,pre-steady-state target cleavage rate
1,AUCACUGUCACCUUCUCUCUCUCUAAUUGA [g13:g30:cont:t1A],0.0033 ± 0.0032
2,AUCACAGUCACCUUCUCUGAGAGAAUAACA,0.305 ± 0.047
3,UACAGUGUCACCUUCUCUGAGAGAUUAUCA,0.271 ± 0.048
4,UAGUCUGUCACCUUCUCUAGAGAUUAACA,0.177 ± 0.015
5,UAGUCUGUCACCUUCUCAGAGAGAUAAACA,0.147 ± 0.02
6,UAGUGACUCACCUUCUCUGAGAGAUUAAUA,0.233 ± 0.035
7,UACACUGUCACCUUGUCUGAGAGAUAAACA,0.229 ± 0.064
8,UAGACUGUGUCCUUCUCUGAGAGAUUAUGA,0.0121 ± 0.0036
9,UAGUGUGUGACCUUCUCUGACAGAUUAACA,0.159 ± 0.026
10,UAGACUGUCACCUUCUCUGACAGAUUAACA,0.219 ± 0.026
11,UAGUGUGUCUCCUUCUCUGAGUGAUUAACA,0.0227 ± 0.0032
12,UACACUCUCACCUUCUCUGAGUGAUUAACA,0.0216 ± 0.0064
13,UAGUGAGUCACCUUCUCUGAGAGAGUUAACA,0.496 ± 0.07
14,UAGUGUGUCACCUUCACUGAGUGAUUAACA,0.0215 ± 0.0055
15,UUCUGUGUCACCUUCUCUGAGAGAUUAACA,0.224 ± 0.022
16,UAGUGAGUCACCUUCUCUGAGAGAAAAUGA,0.0204 ± 0.0083
17,UAGUGACAGUGCUUCUCUGAGAGCUUAACA,0.00641 ± 0.0021
18,UAGUGACUCAGCUACUCUGAGAGAUUAACA,0.00544 ± 0.0018
19,AUCACUGUGACCUUCUCUGAGAGAUAUUGA,0.0262 ± 0.0078
20,UAGUGACAGACCUUCUCUGAGAGAUUUAACA,0.0486 ± 0.0092
21,AAGUCUGUCACCUUCUCUGAGAGAUUAAGA,0.183 ± 0.029
22,AUCACUGUCACCUUGUCUCAGAGAUUAACA,0.0456 ± 0.0043
23,UAGACUGUCACCAUCACUGAGAGAUUAACA,0.41 ± 0.024
24,UACACUGUCACCUGCUCUGAGAGAUUAACA,0.571 ± 0.03
